# Results published in the supplement of paper PMC7238544.
# Where a name gives a salt, the structure may show the parent alone. ± gives the standard deviation of the averaged measurements. The list shows a part of the results.
# Legend:
# Conditions in all cases: priming compound concentration 100 µM
# hAMSC donor 1 [1] = test: Hoechst total cell count ratio vs vehicle control; higher = more cells (less toxicity)
# hAMSC donor 2 [2] = test: as above
# hAMSC donor 1 [3] = test: transgenic luciferase activity (RLU/mg protein) fold change vs vehicle control (ratio); higher = more transgene expression
# hAMSC donor 2 [4] = test: as above
# hAMSC donor 1 [5] = test: transfection efficiency (EGFP+ cells / Hoechst count) fold change vs vehicle control (ratio); hAMSC are human adipose-derived mesenchymal stem cells given an EGFP-luciferase plasmid by lipofection; higher = enhanced transfection
# hAMSC donor 2 [6] = test: as above
# 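For Hoechst total cell count ratio vs vehicle control in this document: compound added 30 min before Lipofectamine 3000 lipoplex delivery, triplicate-well means expressed against DMSO vehicle control wells of the same 96-well plate.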
# 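For transfection efficiency (EGFP+ cells / Hoechst count) fold change vs vehicle control in this document: compounds added 30 min before Lipofectamine 3000 lipoplex transfection, triplicate means relative to DMSO vehicle wells on the same plate, luciferase RLU normalized to BCA total protein.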
# 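For transgenic luciferase activity (RLU/mg protein) fold change vs vehicle control in this document: compounds in DMSO added 30 min before Lipofectamine 3000 transfection of pEGFP-Luc in 96-well plates, values are means of triplicate wells over DMSO vehicle wells on the same plate.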
SMILES,Hoechst total cell count ratio (hAMSC donor 1 [1]),Hoechst total cell count ratio (hAMSC donor 2 [2]),transgenic luciferase activity (hAMSC donor 1 [3]),transgenic luciferase activity (hAMSC donor 2 [4]),transfection efficiency (hAMSC donor 1 [5]),transfection efficiency (hAMSC donor 2 [6])
CCCOc1ccc(C(=O)OCCN(CC)CC)cc1N [Proxymetacaine],1.43 ± 0.26,1.08 ± 0.19,0.732 ± 0.12,0.923 ± 0.21,0.984 ± 0.031,0.888 ± 0.11
CCN(CC)C(=O)C1(c2ccccc2)CC1CN (stereo not drawn) [Milnacipran hydrochloride],1.21 ± 0.16,1.23 ± 0.11,0.889 ± 0.83,0.649 ± 0.16,0.966 ± 0.11,0.801 ± 0.093
CC/C(=C(\c1ccccc1)c1ccc(OCCN(C)C)cc1)c1ccccc1 [Tamoxifen],0.0503 ± 0.027,0.065 ± 0.027,0.000882 ± 0.00014,0.000715 ± 0.00018,0.588 ± 0.7,0.147 ± 0.13
O=C1c2c(O)ccc(O)c2C(=O)c2c(NCCNCCO)ccc(NCCNCCO)c21 [Mitoxantrone hydrochloride],0.0957 ± 0.017,0.011 ± 0.012,0.000674 ± 0.00056,0.000303 ± 0.00013,0.446 ± 0.53,0
CN1CCN2c3ncccc3Cc3ccccc3C2C1 (stereo not drawn) [Mirtazapine],1.49 ± 0.34,1.08 ± 0.051,0.271 ± 0.13,0.597 ± 0.27,1.1 ± 0.042,1.02 ± 0.14
CC(C)NCC(O)c1cc(O)cc(O)c1 (stereo not drawn) [Metaproterenol],1.56 ± 0.057,1.18 ± 0.2,0.318 ± 0.1,0.134 ± 0.0062,1.07 ± 0.14,1.12 ± 0.18
COc1ccc(C2CNC(=O)C2)cc1OC1CCCC1 (stereo not drawn) [Rolipram],1.15 ± 0.23,1.1 ± 0.21,0.827 ± 0.06,0.879 ± 0.31,1.45 ± 0.47,1.02 ± 0.22
CC1(C)S[C@@H]2[C@H](NC(=O)[C@H](N)c3ccc(O)cc3)C(=O)N2[C@H]1C(=O)O [Amoxicillin],1.31 ± 0.05,1.05 ± 0.13,0.274 ± 0.2,0.762 ± 0.4,0.806 ± 0.25,1.08 ± 0.28
Nc1ccn([C@H]2CC[C@@H](CO)O2)c(=O)n1 [Zalcitabine],1.08 ± 0.086,0.919 ± 0.2,1.39 ± 0.08,1.09 ± 0.2,0.937 ± 0.48,1.39 ± 0.22
C#C[C@]1(O)CC[C@H]2[C@@H]3CCC4=CC(=O)CC[C@@H]4[C@H]3CC[C@@]21CC [Levonorgestrel],1.13 ± 0.053,1.48 ± 0.29,1.03 ± 0.56,0.662 ± 0.26,1.01 ± 0.24,1.4 ± 0.5
CC(=O)NC[C@H]1CN(c2ccc(N3CCOCC3)c(F)c2)C(=O)O1 [Linezolid],1.47 ± 0.1,1.27 ± 0.014,5.83 ± 0.91,5.27 ± 1.5,2.92 ± 0.62,1.49 ± 0.19
Clc1ccccc1CN1CCc2sccc2C1 [Ticlopidine hydrochloride],1.7 ± 0.41,1.11 ± 0.062,0.723 ± 0.14,0.44 ± 0.052,1.2 ± 0.25,0.734 ± 0.025
NC(=O)N1c2ccccc2CC(=O)c2ccccc21 [Oxcarbazepine],1.85 ± 0.058,1.33 ± 0.11,0.33 ± 0.097,1.03 ± 0.46,0.342 ± 0.011,0.637 ± 0.011
CC(C)NCC(O)COc1cccc2ccccc12 (stereo not drawn) [Propranolol hydrochloride],0.948 ± 0.11,0.853 ± 0.11,2.36 ± 2.4,0.342 ± 0.054,1.08 ± 0.13,0.957 ± 0.14
CN(C)[C@@H]1C(O)=C(C(=O)NCN2CCCC2)C(=O)[C@@]2(O)C(O)=C3C(=O)c4c(O)cccc4[C@@](C)(O)[C@H]3C[C@@H]12 [Rolitetracycline],2.04 ± 0.24,1.12 ± 0.075,0.718 ± 0.15,0.302 ± 0.082,0.277 ± 0.061,0.291 ± 0.19
N[C@@H](C(=O)N[C@@H]1C(=O)N2C(C(=O)O)=C(CSc3cn[nH]n3)CS[C@H]12)c1ccc(O)cc1 [Cefatrizine propylene glycol],1.33 ± 0.16,1.17 ± 0.072,0.822 ± 0.36,0.662 ± 0.14,1.37 ± 0.26,0.739 ± 0.12
COCCCC/C(=N\OCCN)c1ccc(C(F)(F)F)cc1 [Fluvoxamine maleate],0.927 ± 0.15,0.738 ± 0.027,2.11 ± 0.57,1.34 ± 0.56,0.914 ± 0.24,1.02 ± 0.14
COCC1=C(C(=O)OC(C)OC(=O)OC(C)C)N2C(=O)[C@@H](NC(=O)/C(=N\OC)c3csc(N)n3)[C@H]2SC1 (stereo partly drawn) [Cefpodoxime proxetil],1.31 ± 0.13,0.958 ± 0.21,1.14 ± 0.15,0.774 ± 0.27,0.942 ± 0.06,1.04 ± 0.086
c1ccc(CC2=NCCN2)cc1 [Priscoline hydrochloride],0.935 ± 0.13,1.31 ± 0.094,0.854 ± 0.57,0.663 ± 0.063,0.868 ± 0.032,0.756 ± 0.1
Clc1ccc2nsnc2c1NC1=NCCN1 [Tizanidine hydrochloride],1.05 ± 0.052,1.59 ± 0.88,0.933 ± 0.18,0.659 ± 0.32,1.07 ± 0.42,1.18 ± 0.59
NS(=O)(=O)c1cc2c(cc1C(F)(F)F)NCNS2(=O)=O [Hydroflumethiazide],1.83 ± 0.14,1.61 ± 0.4,6.14 ± 3,2.62 ± 0.36,1.4 ± 0.3,1.9 ± 0.39
CS(=O)(=O)c1ccc(-c2cc(Br)sc2-c2ccc(F)cc2)cc1,1.38 ± 0.35,0.885 ± 0.058,0.566 ± 0.45,0.486 ± 0.05,0.812 ± 0.073,0.525 ± 0.074
O=C1CC2(CCCC2)CC(=O)N1CCCCN1CCN(c2ncccn2)CC1 [Buspirone hydrochloride],1.4 ± 0.1,1.78 ± 0.15,1.06 ± 0.39,0.913 ± 0.17,0.866 ± 0.072,0.933 ± 0.14
